Consider 4 molecules from the supplement of paper PMC11741623.

The other results are listed elsewhere or left out. Interaction screen of human proteins with wild-type SARS-CoV-2 proteins by split-DHFR complementation in yeast, 1 µg/mL methotrexate. Value = fitness of the pair (three or more lineages) minus that of the viral protein without a human partner, on a scale set by negative (0) and fused positive (1) controls, mean of up to three cultures; higher = more likely to interact. Active = false discovery rate below 0.05 (one-sided t-test) in at least one culture. Nearly all pairs are not hits, and differences among them are mostly noise (correlation between cultures about 0.3); most hits were seen in one culture only. Human sequences are the Swiss-Prot entries looked up by gene name; the clone may be another isoform. NSP2 values were corrected by the authors for a growth advantage. Listed are human proteins with a hit and a random twelfth of the others.

The labels stand for the following.
B1: C1orf85, Q8WWB7 (protein)
chain: MRGSVECTWGWGHCAPSPLLLWTLLLFAAPFGLLGEKTRQVSLEVIPNWLGPLQNLLHIRAVGTNSTLHYVWSSLGPLAVVMVATNTPHSTLSVNWSLLLSPEPDGGLMVLPKDSIQFSSALVFTRLLEFDSTNVSDTAAKPLGRPYPPYSLADFSWNNITDSLDPATLSATFQGHPMNDPTRTFANGSLAFRVQAFSRSSRPAQPPRLLHTADTCQLEVALIGASPRGNRSLFGLEVATLGQGPDCPSMQEQHSIDDEYAPAVFQLDQLLWGSLPSGFAQWRPVAYSQKPGGRESALPCQASPLHPALAYSLPQSPIVRAFFGSQNNFCAFNLTFGASTGPGYWDQHYLSWSMLLGVGFPPVDGLSPLVLGIMAVALGAPGLMLLGGGLVLLLHHKKYSEYQSIN
B2: ARFIP2, P53365 (protein)
chain: MTDGILGKAATMEIPIHGNGEARQLPEDDGLEQDLQQVMVSGPNLNETSIVSGGYGGSGDGLIPTGSGRHPSHSTTPSGPGDEVARGIAGEKFDIVKKWGINTYKCTKQLLSERFGRGSRTVDLELELQIELLRETKRKYESVLQLGRALTAHLYSLLQTQHALGDAFADLSQKSPELQEEFGYNAETQKLLCKNGETLLGAVNFFVSSINTLVTKTMEDTLMTVKQYEAARLEYDAYRTDLEELSLGPRDAGTRGRLESAQATFQAHRDKYEKLRGDVAIKLKFLEENKIKVMHKQLLLFHNAVSAYFAGNQKQLEQTLQQFNIKLRPPGAEKPSWLEEQ
B3: B3GNTL1, Q67FW5 (protein)
chain: MQAHVSIILPVHNAEPWLDECLRSVLQQDFEGTMELSVFNDASKDKSGAIIEKWRVKLEDSGVHVIIGGHDSPSPRGVGYAKNQAVAQSSGSYLCFLDSDDVMMPQRVRLQHEAAVQHPSSIIGCRVRRDPPNSTERYTRWINQLTPEQLLTQVFTSNGPTVIMPTWFCSRAWFSHVGPFNEGGQGVPEDLLFFYEHLRKGGGVIRVDQSLLLYRHHPQAATHCVLETTIWTHRVRFLEEQALPRWAAFTIWNAGKQGRRLYRSLTAGSQRKVVAFCDVDENKIRKGFYCHEDSQERPKPRIPILHFRAARPPFVICVKLDLTGGAFEDNLRSLHLQEGQDFLHFS
B4: C18orf1, O15165 (protein)
chain: MPEAGFQATNAFTECKFTCTSGKCLYLGSLVCNQQNDCGDNSDEENCLLVTEHPPPGIFNSELEFAQIIIIVVVVTVMVVVIVCLLNHYKVSTRSFINRPNQSRRREDGLPQEGCLWPSDSAAPRLGASEIMHAPRSRDRFTAPSFIQRDRFSRFQPTYPYVQHEIDLPPTISLSDGEEPPPYQGPCTLQLRDPEQQMELNRESVRAPPNRTIFDSDLIDIAMYSGGPCPPSSNSGISASTCSSNGRMEGPPPTYSEVMGHHPGASFLHHQRSNAHRGSRLQFQQNNAESTIVPIKGKDRKPGNLV

The target in one experiment is SARS-CoV-2 M. Briefly: yeast fitness gain over the viral ORF with no human partner (scaled fitness); higher = more likely to interact. On the procedure:
(§1)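 Split mouse DHFR complementation in pooled diploid yeast: human ORFeome clones carry one fragment and viral ORFs the other; barcoded lineages compete in 1 µg/mL methotrexate and fitness is read by barcode sequencing in up to three cultures.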
In the case of B1, the yeast fitness gain is inactive: 0.0876.
For B2, the yeast fitness gain is inactive: -0.28.
In the case of B3, the yeast fitness gain is inactive: -0.0411.
Take B4: the yeast fitness gain is inactive: -0.0493.

A further experiment addresses SARS-CoV-2 NSP1. The description is as above. On the procedure: as §1
As to B1, the yeast fitness gain was inactive: 0.0432.
Regarding B2, the yeast fitness gain is inactive: -0.0858.
Regarding B3, the yeast fitness gain was inactive: 0.0568.
Take B4: the yeast fitness gain was inactive: 0.0229.

Another experiment has as its target SARS-CoV-2 NSP12. The experiment is described as above. As for the experimental part:
as §1
Take B1: the yeast fitness gain is inactive: -0.0779.
As for B2, the yeast fitness gain is inactive: -0.035.
B3: the yeast fitness gain is inactive: -0.0122.
On the same count and under the same terms, to B4 belongs inactive: 0.00669.

The next experiment deals with SARS-CoV-2 NSP13. The experiment is described as above. On the procedure:
as §1
Turning to B1, the yeast fitness gain is inactive: 0.0945.
In the case of B2, the yeast fitness gain is inactive: -0.0325.
Consider B3, for which the yeast fitness gain is inactive: -0.0068.
Regarding B4, the yeast fitness gain was inactive: -0.0498.

A further experiment addresses SARS-CoV-2 NSP2. The description is as above. On the procedure: as §1
B1: the yeast fitness gain was inactive: -0.161.
As to B2, the yeast fitness gain was inactive: -0.0843.
Consider B3, for which the yeast fitness gain is inactive: -0.149.
For the molecule B4, the yeast fitness gain was inactive: -0.139.

For a further experiment, the target named is SARS-CoV-2 NSP6. The experiment is described as above. On the procedure:
as §1
B1: the yeast fitness gain was inactive: 0.0753.
On to B2, for which the yeast fitness gain is inactive: 0.128.
As to B3, the yeast fitness gain was inactive: -0.0436.
For B4, the yeast fitness gain is inactive: 0.0615.

A further experiment deals with SARS-CoV-2 NSP7. The description is as above. As for the experimental part:
as §1
Take B1: the yeast fitness gain was inactive: 0.116.
Consider B2, for which the yeast fitness gain is inactive: -0.0121.
As to B3, the yeast fitness gain was inactive: -0.0147.
Turning to B4, the yeast fitness gain is inactive: 0.0317.

The next experiment addresses SARS-CoV-2 ORF6. Described as above. As for the experimental part: as §1
On to B1, for which the yeast fitness gain was inactive: -0.0181.
Take B2: the yeast fitness gain is inactive: 0.0384.
With B3, the yeast fitness gain is inactive: -0.0323.
For B4, the yeast fitness gain was inactive: 0.0221.

Another experiment addresses SARS-CoV-2 ORF7A. The description is as above. On the procedure:
as §1
On to B1, for which the yeast fitness gain is inactive: 0.167.
Take B2: the yeast fitness gain is inactive: -0.07.
Take B3: the yeast fitness gain was inactive: -0.0676.
Same read-out and setting: to B4 belongs inactive: 0.0546.

The next experiment addresses SARS-CoV-2 ORF7B. Described as above. On the procedure:
as §1
Consider B1, for which the yeast fitness gain is inactive: 0.000927.
On the same count and under the same terms, to B2 belongs inactive: 0.0187.
For the molecule B3, the yeast fitness gain is inactive: 0.0136.
Still for that read-out and setting: to B4 belongs inactive: 0.00938.

A further experiment addresses SARS-CoV-2 ORF8. The experiment is described as above. On the procedure: as §1
Take B1: the yeast fitness gain was inactive: 0.021.
For B2, the yeast fitness gain was inactive: -0.0883.
Take B3: the yeast fitness gain is inactive: -0.111.
On the same count and under the same terms, to B4 belongs inactive: 0.0122.

A further experiment addresses SARS-CoV-2 ORF9B. The description is as above. On the procedure:
as §1
Turning to B1, the yeast fitness gain was inactive: 0.0639.
As for B2, the yeast fitness gain is inactive: 0.0455.
Consider B3, for which the yeast fitness gain was inactive: 0.0735.
As to B4, the yeast fitness gain is inactive: -0.0355.

The next experiment concerns the target SARS-CoV-2 S. Described as above. On the procedure:
as §1
B1: the yeast fitness gain was inactive: -0.248.
On the same count and under the same terms, to B2 belongs inactive: -0.0769.
In the case of B3, the yeast fitness gain was inactive: -0.117.
Consider B4, for which the yeast fitness gain is inactive: -0.0602.

For the next experiment, the target named is SARS-CoV-2 NSP10. The description is as above. As for the experimental part:
as §1
Turning to B2, the yeast fitness gain is inactive: -0.105.
Regarding B3, the yeast fitness gain was inactive: -0.0414.
For B4, the yeast fitness gain was inactive: 0.0576.

The next experiment deals with SARS-CoV-2 NSP5. The experiment is described as above. On the procedure: as §1
As to B2, the yeast fitness gain is inactive: 0.0725.
With B3, the yeast fitness gain was inactive: -0.0496.
Regarding B4, the yeast fitness gain is inactive: 0.083.

In the next experiment the target is SARS-CoV-2 ORF10. The description is as above. On the procedure:
as §1
In the case of B2, the yeast fitness gain is inactive: 0.0143.
On the same count and under the same terms, as for B3, the figure is inactive: 0.025; as for B4, inactive: -0.0176.

A further experiment concerns the target SARS-CoV-2 ORF3B. The description is as above. As for the experimental part:
as §1
On to B2, for which the yeast fitness gain is inactive: -0.0264.
Take B3: the yeast fitness gain is inactive: 0.0454.
As for B4, the yeast fitness gain is inactive: -0.0167.

In another experiment the target is SARS-CoV-2 ORF9Bwu (the 73-codon ORF). The experiment is described as above. As for the experimental part:
as §1
For the molecule B2, the yeast fitness gain was inactive: -0.327.
The same measure, in the same setting: to B3 belongs inactive: 0.0586; to B4, inactive: 0.0386.

The next experiment addresses SARS-CoV-2 N. The description is as above. As for the experimental part: as §1
B3: the yeast fitness gain is inactive: -0.073.

The target of another experiment is SARS-CoV-2 NSP14. The experiment is described as above. On the procedure: as §1
With B3, the yeast fitness gain was inactive: -0.0388.
Turning to B4, the yeast fitness gain was inactive: -0.000602.

A further experiment has as its target SARS-CoV-2 NSP15. Described as above. As for the experimental part: as §1
With B3, the yeast fitness gain was inactive: 0.071.

The target in a further experiment is SARS-CoV-2 NSP16. The experiment is described as above. As for the experimental part: as §1
Take B3: the yeast fitness gain was inactive: -0.0542.
For B4, the yeast fitness gain was inactive: -0.0111.

For the next experiment, the target named is SARS-CoV-2 NSP4. Described as above. As for the experimental part:
as §1
With B3, the yeast fitness gain was inactive: 0.0334.
Regarding B4, the yeast fitness gain was inactive: -0.0768.

A further experiment concerns the target SARS-CoV-2 NSP8. The experiment is described as above. As for the experimental part:
as §1
Take B3: the yeast fitness gain was inactive: -0.0778.
Turning to B4, the yeast fitness gain is inactive: 0.0844.

The target of a further experiment is SARS-CoV-2 NSP9. Described as above. On the procedure: as §1
On to B3, for which the yeast fitness gain was inactive: 0.158.
Turning to B4, the yeast fitness gain is inactive: -0.00859.

In a further experiment the target is SARS-CoV-2 ORF3A. The description is as above. On the procedure: as §1
Regarding B4, the yeast fitness gain is inactive: -0.0835.
